ChEMBL document CHEMBL2157866, “Virtual screening and computational optimization for the discovery of covalent prolyl oligopeptidase inhibitors with activity in human cells” (J Med Chem, 2012)

System: Cc1cc(=O)oc2cc(NC(=O)[C@@H]3CCCN3C(=O)CNC(=O)OCc3ccccc3)ccc12
Experiment: Activity of human recombinant FAPalpha incubated for 30 mins by fluorimetric assay

Prolyl endopeptidase FAP (Homo sapiens) (sequence left out)
Km: 103 µM
